Scores whose standard error is large were omitted. Two further conditions of the source, in which the scores hardly spread, are not listed. Read del as a deletion of the residues named and ins as an insertion between two positions. For part of these data: The data file names ogerin without a concentration.
B1: GPR68, Q15743 (parent)
chain: MGNITADNSSMSCTIDHTIHQTLAPVVYVTVLVVGFPANCLSLYFGYLQIKARNELGVYLCNLTVADLFYICSLPFWLQYVLQHDNWSHGDLSCQVCGILLYENIYISVGFLCCISVDRYLAVAHPFRFHQFRTLKAAVGVSVVIWAKELLTSIYFLMHEEVIEDENQHRVCFEHYPIQAWQRAINYYRFLVGFLFPICLLLASYQGILRAVRRSHGTQKSRKDQIQRLVLSTVVIFLACFLPYHVLLLVRSVWEASCDFAKGVFNAYHFSLLLTSFNCVADPVLYCFVSETTHRDLARLRGACLAFLTCSRTGRAREAYPLGAPEASGKSGAQGEEPELLTKLHPAFQTPNSPGSGGFPTGRLA

Columns and labels:
[1] = variants of: B1; assay: cAMP reporter score (Enrich2 score, wild type = 0); higher = more signal; HEK293T, FACS bins
[2] = variants of: B1; assay: surface expression score (Enrich2 score, wild type = 0); higher = more signal; HEK293T, FACS bins

Variant | cAMP reporter score ([1]; pH 5.5) | cAMP reporter score ([1]; pH 6) | cAMP reporter score ([1]; pH 6, modulator: ogerin) | cAMP reporter score ([1]; pH 6.5, modulator: ogerin) | surface expression score [2]
A211_V212insGS | -1.73 | -1.95 | -1.49 | -0.859 | 0.278
A211_V212insGSG | -1.56 | -1.12 | -1.19 | -0.966 | -0.145
A211del | -1.49 | -0.07 | -1.15 | -0.937 | 0.22
V212A | -0.956 | -0.718 | -1.28 | -1.23 | 0.822
V212C | -1.6 | -1.23 | -1.48 | -1.19 | 0.549
V212D | -1.17 | -1.23 | -1.48 | -1.42 | 0.374
V212E | -0.416 | -0.678 | -1.62 | -0.695 | 1
V212F | -1.94 | -1.18 | -1.54 | -1.36 | 0.644
V212G | -1.92 | -1.46 | -2.73 | -2.33 | 0.228
V212H | -0.975 | -0.467 | -1.43 | -0.98 | 0.471
V212I | -0.485 | -0.411 | -0.497 | -0.52 | -0.414
V212K | -1.42 | -1.75 | -1.73 | -1.01 | -0.577
V212L | -1.24 | -1.18 | -1.07 | -1.34 | 1.04
V212M | -0.525 | -1.82 | -1.6 | -0.776 | 0.608
V212N | -1.74 | – | -1.26 | -1.69 | 0.04
V212P | -1.21 | -1.98 | -1.75 | -1.23 | 0.027
V212Q | -1.54 | -0.971 | -1.86 | -0.799 | 2
V212R | -0.641 | -1.25 | -0.825 | – | 0.912
V212S | -1.44 | -0.448 | -1.56 | -1.14 | 0.128
V212T | -0.64 | -0.591 | -1.03 | -0.766 | 1.04
V212W | -1.33 | -1.52 | -1.13 | -1.42 | -0.795

Variant | cAMP reporter score ([1]; pH 5.5) | cAMP reporter score ([1]; pH 6) | cAMP reporter score ([1]; pH 6, modulator: ogerin) | cAMP reporter score ([1]; pH 6.5, modulator: ogerin) | surface expression score [2]
V212Y | -1.78 | -1.49 | -1.69 | -1.68 | 0.097
V212_R213del | -2.17 | -0.591 | -1.49 | -1.51 | 1.01
V212_R213insGS | -0.618 | -1.97 | -1.52 | -1.36 | -0.509
R213A | 0.541 | -0.005 | 0.809 | -0.035 | -0.12
R213C | 1.36 | 1.79 | 0.475 | 0.565 | 0.247
R213D | -0.403 | -1.24 | -0.458 | -0.642 | -0.505
R213E | -0.149 | -0.667 | -0.129 | 0.218 | -0.21
R213F | -0.475 | -0.807 | 0.151 | -1 | -1.84
R213G | 0.664 | 0.343 | 1.12 | -0.12 | -0.186
R213H | -0.406 | -0.085 | -0.574 | -0.327 | -0.572
R213I | 0.527 | -0.775 | 0.508 | 0.025 | -1.25
R213K | 0.889 | – | 1.39 | 0.659 | 1.64
R213L | -0.271 | 0.035 | -0.051 | -0.747 | -1.56
R213M | 0.244 | 1.33 | 0.169 | 0.458 | -0.189
R213N | -0.126 | -0.132 | -0.405 | -0.378 | -1.18
R213P | -0.446 | -0.979 | -0.766 | -0.247 | 1.2
R213S | 0.173 | 1.91 | 0.217 | -0.817 | 0.325
R213T | -0.087 | 1.17 | 0.036 | 0.282 | -1.24
R213V | -0.456 | – | -0.766 | 0.316 | -0.445
R213W | 1.53 | 0.869 | 1.55 | 1.49 | 0.072
R213Y | 0.959 | -0.025 | 1 | 0.186 | -0.225

Variant | cAMP reporter score ([1]; pH 5.5) | cAMP reporter score ([1]; pH 6) | cAMP reporter score ([1]; pH 6, modulator: ogerin) | cAMP reporter score ([1]; pH 6.5, modulator: ogerin) | surface expression score [2]
R213del | -1.68 | -1.09 | -1.58 | -1.33 | 0.006
R214A | 2.3 | – | 2.81 | 1.94 | –
R214C | -0.673 | – | -0.163 | -0.173 | -0.462
R214D | 0.148 | -0.652 | 0.22 | 0.248 | –
R214E | 0.213 | 0.368 | 0.507 | -0.103 | -0.228
R214F | 1.01 | 0.815 | – | – | 0.928
R214H | -0.472 | -0.374 | -0.506 | -0.598 | -0.356
R214I | 0.243 | – | -0.491 | – | -0.859
R214L | -0.361 | -1.63 | -0.372 | -0.417 | -0.957
R214M | 0.355 | 1.06 | 0.175 | 0.4 | -0.306
R214N | 1.79 | 1.12 | 1.9 | 1.48 | 1.73
R214P | -0.239 | -0.402 | -1.18 | -1.07 | 0.568
R214Q | 0.755 | 0.699 | 0.291 | 0.964 | -0.668
R214S | 2.12 | 0.504 | 2.01 | 1.71 | 1.76
R214T | 0.475 | -2.02 | -0.026 | -1.02 | –
R214V | 1.13 | 0.109 | 1.29 | 0.288 | 0.388
R214W | 0.116 | -1.01 | -0.433 | -0.532 | -0.288
R214Y | 1.05 | -0.443 | 0.575 | -0.062 | 0.443
R214_H216del | -1.74 | -0.87 | -1.6 | -0.799 | -0.211
R214_S215del | -1.54 | -1.34 | -1.79 | -0.978 | -0.641

Reference: the GPR68 mutational scans of Howard et al. (2025)
